PubChem BioAssay AID445 (National Center for Advancing Translational Sciences (NCATS), 2006)
Screen size: about 110,000 compounds; about 40 (0.04%) were called active. The shares of active, inactive and inconclusive entries below differ from those in the screen. The call rests on the fitted dose curve; in most records, active means well fitted curve in the direction sought with a large enough effect in the signal ratio (not every such curve was filed as active); inconclusive means small, poorly fitted or top-dose-only effect, or a change in a side signal; inactive means flat fitted curve, though single readings scatter; the % refers to the signal ratio. Potencies beside an inconclusive call are fits to weak or partial responses and may not hold up.
Potency means the concentration at half of the fitted maximal effect.

Assay: IkB Signaling;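 on IkBa stabilization activation: 0% = basal untreated cells and 100% = reference inhibitor full response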
Conditions: ABC-DLBCL IkBa-CBG/CBR dual luciferase ratio (green luciferase fused to IkBa over red control in OCI-Ly3 lymphoma cells), 4 h; IkBa stabilization activation: at 57.1 µM (top of the series), scaled: untreated 0%, proteasome inhibitor 100% unless noted
Procedure, shortened: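 Curves were fitted separately to fusion (green), unfused (red) and ratio luminescence, then classed by r2, magnitude and activity. Cells: OCI-Ly3, 4 h compound plus doxycycline at 37C; 10 uM MG-132 defined full response.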
For `Cc1ccc(-c2nc3ccccn3c2Nc2ccc3c(c2)OCCO3)o1`, the IkBa stabilization activation was inconclusive: 2.26% [signal inhibitor].
With `O=C1CN(C(=O)COc2ccc(Cl)cc2)C(c2ccc(F)cc2)c2cc(Cl)ccc2N1` (configuration not stated) the IkBa stabilization activation was inconclusive: 2.64% [signal inhibitor].
In the case of `COc1cccc(OC)c1C(=O)Nc1ccc2c(c1)OCCO2`, the “IkBa stabilization activation” value is reported as inactive: -1.65%.
With `NNC(=O)[C@@H](O)[C@H](O)[C@H](O)CO` the IkBa stabilization activation was inactive: 0.788% [at 11.4 µM, scaled: untreated 0%, proteasome inhibitor 100%].
For `COC(=O)c1nc2n(n1)C(c1cc(OC)ccc1OC)C=C(c1ccc(Br)cc1)N2` (configuration not stated), the IkBa stabilization activation was inconclusive: -1.43% [signal inhibitor].
With `O=S(=O)(c1ccccc1)N1CCC2(CCCN(c3cccc(-c4ccccc4)c3)C2)CC1` the IkBa stabilization activation was inactive: 1.92% [at 11.4 µM, scaled: untreated 0%, proteasome inhibitor 100%].
In the case of `O=C(c1ccccc1F)N1c2nc(-c3ccco3)nn2C2(CCCCC2)[C@@H]2CCCC[C@@H]21`, the IkBa stabilization activation is reported as inconclusive: -0.359% [signal inhibitor].
With `Cc1c(Cl)cccc1NS(=O)(=O)c1ccc(NS(=O)(=O)c2ccc3c(c2)OCCO3)cc1` the IkBa stabilization activation was inconclusive: -9.26% [signal inhibitor].
For `COc1ccc(CCNC(=O)CCc2cn(Cc3ccc(F)cc3)c3ccccc23)cc1OC`, the “IkBa stabilization activation” value was inactive: 0.276%.
With `CC(C)Oc1ccccc1C1CC(=O)Nc2cc3c(cc21)OCCO3` (configuration not stated) the Potency was inconclusive: 31.6 µM [signal inhibitor, partial curve].
With `Cc1cccc(N2CCN(C(=O)c3cccn3-c3nnc(N4CCCCC4)s3)CC2)c1C` the IkBa stabilization activation was inconclusive: 12% [signal inhibitor].
In the case of `Cc1cc(C)c(C#N)c(SCC(=O)Nc2ccccc2C(N)=O)n1`, the “IkBa stabilization activation” value is reported as inactive: 0.896%.
In the case of `CCc1cccc(C)c1NC(=O)c1cc(S(=O)(=O)N2CCCCCC2)cn1C`, the IkBa stabilization activation is reported as inconclusive: 3.06% [signal inhibitor].
With `COc1ccc(-c2cc(C(F)(F)F)nc(SCCC(=O)Nc3cccc(OC)c3)n2)cc1` the IkBa stabilization activation was inconclusive: 4.06% [signal inhibitor].
With `CNCCCCCCCCSc1nc(C(C)C)ccc1C(=O)c1cccs1` the “IkBa stabilization activation” value was inactive: 0.212%.
For `COc1ccccc1N1CCN(S(=O)(=O)CCNC(=O)COc2ccccc2F)CC1`, the IkBa stabilization activation was inconclusive: 1.23% [signal inhibitor].
In the case of `Cc1ccc(CNc2ncccc2-c2nc(-c3ccc(Cl)cc3)no2)cc1`, the “IkBa stabilization activation” value is reported as inactive: 0.025%.
In the case of `O=C(CCCn1c(=O)c2sccc2n(Cc2ccc(Cl)cc2)c1=O)NCc1ccc2c(c1)OCO2`, the IkBa stabilization activation is reported as inconclusive: 6.65% [signal inhibitor].
In the case of `CCOC(=O)c1ccccc1NC(=O)c1cc2c(s1)-c1ccccc1SC2`, the IkBa stabilization activation is reported as inconclusive: 10.6% [signal inhibitor].
For `COc1ccc(Br)cc1CNC(=O)CCc1cn(Cc2ccc(C)cc2)c2ccccc12`, the IkBa stabilization activation was inconclusive: 1.99% [signal inhibitor].
In the case of `Cc1scc(CN2CCN(c3ccc(F)cc3)CC2)c1C`, the IkBa stabilization activation is reported as inconclusive: -1.36% [signal inhibitor].
In the case of `O=C(O)CCC(O)=C1S(=O)(=O)OCCOS1(=O)=O`, the IkBa stabilization activation is reported as inactive: 0.919% [at 11.4 µM, scaled: untreated 0%, proteasome inhibitor 100%].
With `Cc1ccc(-c2nc(S(=O)(=O)c3ccccc3)c(SCC(=O)NC3CCCCC3)o2)cc1` the “IkBa stabilization activation” value was inactive: 2.81%.
With `Cc1nc(SCc2nc3ccccc3[nH]2)c2oc3ccccc3c2n1` the IkBa stabilization activation was inconclusive: 0.637% [signal inhibitor].
With `CC(C)c1ccc(NC(=O)CN2C(=O)CSc3ccc(S(=O)(=O)N4CCCC4)cc32)cc1` the IkBa stabilization activation was inconclusive: 0.465% [signal inhibitor].
With `N#Cc1ccc(NC(=O)Nc2ccc(Cl)cc2)cc1` the IkBa stabilization activation was inconclusive: -3.1% [signal inhibitor].
With `CC(C)CC(NC(=O)C1CCCCC1)C(=O)Nc1cccc(C(F)(F)F)c1` (configuration not stated) the IkBa stabilization activation was inconclusive: 1.92% [signal inhibitor].
With `COc1ccc(N=c2oc3cc(O)ccc3cc2C(=O)NCC2CCCO2)cc1` (configuration not stated) the Potency was inconclusive: 3.98 µM [signal inhibitor, partial curve].
With `Cc1ccc(NC(=O)c2sc3nc(-c4ccncc4)ccc3c2N)cc1` the IkBa stabilization activation was inconclusive: 4.11% [signal inhibitor].
In the case of `CCOc1ccc(S(=O)(=O)c2c(C(=O)c3ccc(C)c(C)c3)cnc3ccccc23)cc1`, the IkBa stabilization activation is reported as inconclusive: 4.37% [signal inhibitor].
With `Cc1ccc(CNC(=O)CCc2nnc3n(C)c(=O)c4sccc4n23)cc1` the IkBa stabilization activation was inconclusive: 7.11% [signal inhibitor].
In the case of `CCOC(=O)c1ccc(Nc2nnc(C(C)(C)C)c(=O)[nH]2)cc1`, the IkBa stabilization activation is reported as inconclusive: 11% [signal inhibitor].
For `CC(=O)Nc1ccc(Nc2c(CCC(C)C)c(C)c(C#N)c3nc4ccccc4n23)cc1`, the IkBa stabilization activation was inconclusive: 7.05% [signal inhibitor].
With `CCc1ccc2nc(NC(=O)CSCc3c(C)noc3C)sc2c1` the IkBa stabilization activation was inconclusive: 0.651% [signal inhibitor].
With `COC(=O)c1sccc1S(=O)(=O)N(CC(=O)Nc1ccc(C)c(F)c1)c1ccc(C)c(C)c1` the IkBa stabilization activation was inconclusive: 2.04% [signal inhibitor].
With `Cc1onc(-c2ccccc2Cl)c1C(=O)Nc1cccc(-c2nc3ncccn3c2C)c1` the IkBa stabilization activation was inconclusive: -0.98% [signal inhibitor].
For `COC(=O)c1ccccc1NC(=O)C1CC(=O)N(c2ccccc2)C1` (configuration not stated), the “IkBa stabilization activation” value was inactive: 0.153%.
For `COc1ccc(-c2cc(C(C)=O)c(C)n2CCC(=O)Nc2ccc(C)c(Cl)c2)cc1`, the IkBa stabilization activation was inconclusive: -0.825% [signal inhibitor].
For `COc1ccc(NC(=O)CCn2c(-c3ccc(F)cc3)cc(C(C)=O)c2C)c(OC)c1`, the “IkBa stabilization activation” value was inactive: -0.413%.
In the case of `CCCNc1ncnc2c1c(-c1ccccc1)cn2-c1ccc(OCC)cc1`, the IkBa stabilization activation is reported as inconclusive: 0.937% [signal inhibitor].
For `COC(=O)CSc1nnc(CNc2ccc(Cl)cc2)n1Cc1ccccc1`, the Potency was inconclusive: 15.8 µM [signal inhibitor, partial curve].
For `CCCOc1ccc(C(=O)Nc2ccc(-c3cc4ccccc4oc3=O)c(C)c2)cc1`, the Potency was inconclusive: 3.98 µM [signal inhibitor].
